Reference: PubChem BioAssay (Tox21)
Where “and” joins values, the source holds several entries; their conditions need not be identical. Identical values can stand only once. This list was built around the results that the source calls inconclusive (neither active nor inactive); the mix of calls is not that of the screen. For some of these results: A potency beside an inconclusive call is a rough fit, not a confirmed value. Some structures have more than one record in an assay (separate samples or runs), and their calls can disagree. Calls of active or inactive are those of the source. Unless noted, the call rests on the fitted dose curve; in most records, active means well fitted curve in the direction sought with a large enough effect in the repeat runs; inconclusive means weak or mixed curves; inactive means no such curve, though single readings can be large; an effect the other way counts as inactive or inconclusive.

Experiments:
[1] = molecular target: Progesterone receptor (Homo sapiens) (UniProt P06401); assay: qHTS assay to identify small molecule agonists of the progesterone receptor (PR) signaling pathway (AID 1346784; calls by dose curve; further: nearly all actives have a fitted effect of over 30% in size; further: potency means the concentration at half of the fitted maximal effect; on activation: on the % scale 0 is the no-effect control and ±100 the full control effect); conditions: PR-UAS-bla HEK293T, beta-lactamase FRET ratio, 16 h; activation: at 92.4 µM (top of the series) unless noted
Procedure, shortened: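 Compounds were tested for PR agonism in HEK 293T cells bearing a beta-lactamase gene under UAS control. Treatment lasted 16 hr at 37C; signal came from fluorescence of a FRET substrate.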

[2] = qHTS assay to identify small molecule agonists of the peroxisome proliferator-activated receptor delta (PPARd) signaling pathway - cell viability counter screen (AID 743211); conditions: PPARd-bla HEK293H viability, CellTiter-Glo luminescence, 17 h; activity change, negative = cytotoxicity: at 62.6 µM (top of the series) unless noted; further: on the % scale 0 is the no-effect control and ±100 the full control effect; nearly all actives have a fitted effect of over 55% in size
Procedure, shortened: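 qHTS cell viability: PPARd-bla HEK293H; 17 h cpd, 37C; CellTiter-Glo, luminescence at 30 min RT.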

[3] = qHTS RealTime-Glo MT Cell Viability Assay in HEK293 cells - 32 hour (AID 1224868); further: nearly all actives have a fitted effect of over 50% in size; further: potency means the concentration at half of the fitted maximal effect
Procedure, shortened: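 HEK293 cells seeded with NanoLuc/prosubstrate reagent, rested 5 h at 37 C, then dosed and kept at 37 C up to 40 h. Nonlytic real-time luminescence from viable cells read at 0, 8, 16, 24, 32 and 40 h.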

[4] = qHTS assay to identify small molecule antagonists of the peroxisome proliferator-activated receptor gamma (PPARg) signaling pathway - cell viability counter screen (AID 743194); conditions: PPARg-bla HEK293H viability, CellTiter-Glo luminescence, 17 h, co-treated with 50 nM rosiglitazone; activity change, negative = cytotoxicity: at 62.6 µM (top of the series) unless noted; further: potency means the concentration at half of the fitted maximal effect; nearly all actives have a fitted effect of over 55% in size
Procedure, shortened: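 Viability was measured as CellTiter-Glo luminescence in GeneBLAzer PPARg UAS-bla HEK293H cells. These cells had been exposed 17 h at 37 C to compounds together with rosiglitazone at 50 nM final, with the beta-lactamase readout taken in the same wells.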

[5] = molecular target: Estrogen receptor (Homo sapiens) (UniProt P03372); assay: qHTS assay to identify small molecule agonists of the estrogen receptor alpha (ER-alpha) signaling pathway using the BG1 cell line (AID 743079); conditions: BG1Luc4E2 cells, ERE-luciferase agonist, 22 h; activation: at 70.3 µM (top of the series) unless noted; further: on the % scale 0 is the no-effect control and ±100 the full control effect; nearly all actives have a fitted effect of over 20% in size
[6] = molecular target: Peroxisome proliferator-activated receptor gamma (Homo sapiens) (UniProt P37231); assay: qHTS assay to identify small molecule agonists of the peroxisome proliferator-activated receptor gamma (PPARg) signaling pathway (AID 743094; active means well fitted activation curve with a large enough effect in the signal ratio in the repeat runs, not every such curve was filed as active; inconclusive means weak or mixed curves, or effect the other way; inactive means no such curve, though single readings can be large or run the other way; the % refers to the signal ratio; further: potency means the concentration at half of the fitted maximal effect; on activation: on the % scale 0 is the no-effect control and ±100 the full control effect); conditions: HEK293H PPARg-UAS-bla, beta-lactamase FRET ratio, 17 h; activation: at 57 µM (top of the series) unless noted
Procedure, shortened: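 Following 5 h plating at 37C, PPARg-bla HEK293H cells receive compound or DMSO for 17 h; fluorescence intensity is recorded after LiveBLAzer B/G loading for 1 h at room temperature.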

[7] = qHTS assay to identify small molecule agonists of the vitamin D receptor (VDR) signaling pathway - cell viability counter screen (AID 743224); further: nearly all actives have a fitted effect of over 50% in size; further: potency means the concentration at half of the fitted maximal effect
Procedure, shortened: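 Here cell health was gauged by luminescent ATP detection (CellTiter-Glo, 30 min RT) in VDR-bla cells that had been incubated with test compounds for 16 h at 37C and 5% CO2.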

[8] = molecular target: Peroxisome proliferator-activated receptor delta (Homo sapiens) (UniProt Q03181); assay: qHTS assay to identify small molecule antagonists of the peroxisome proliferator-activated receptor delta (PPARd) signaling pathway (AID 743215; active means well fitted inhibition curve with a large enough effect in the signal ratio in the repeat runs, not every such curve was filed as active; inconclusive means weak or mixed curves, or effect the other way; inactive means no such curve, though single readings can be large or run the other way; the % refers to the signal ratio;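 further: cells stimulated with agonist L165041 at 300 nM final during compound exposure; on the % scale 0 is the no-effect control and ±100 the full control effect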); conditions: HEK293H PPARd-UAS-bla, beta-lactamase FRET ratio, antagonist, 17 h; ratio activity, negative = inhibition: at 62 µM (top of the series) unless noted
Procedure, shortened: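 With L165041 present at 300 nM final, compounds were incubated 17 h at 37 C on PPARd UAS-bla HEK293H cells. A FRET-based beta-lactamase substrate was then applied for 2 h at room temperature and fluorescence intensity recorded.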

[9] = Human pregnane X receptor (PXR) small molecule agonists, qHTS cell viability counter screen (AID 1346977); further: on the % scale 0 is the no-effect control and ±100 the full control effect; nearly all actives have a fitted effect of over 50% in size
Procedure, shortened: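 Tox21 qHTS format; PXR-Luc HepG2, 2,000/well, charcoal-stripped FBS 5%. Cpd exposure 24hr. Read: CellTiter-Fluor fluorescence, multiplexed with luciferase.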

[10] = molecular target: Voltage-gated inwardly rectifying potassium channel KCNH2 (Homo sapiens) (UniProt Q12809); assay: Human Ether-a-go-go-Related Gene (hERG) channel small molecule antagonists: fluorescence cell-based qHTS assay (AID 1671200); further: potency means the concentration at half of the fitted maximal effect; nearly all actives have a fitted effect of over 50% in size
Procedure, shortened: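 Kinetic two-minute fluorescence traces, sampled at 1 s, were collected following thallium stimulus of U2OS cells (1000 per well) that had been cultured overnight at 37 C and loaded with FluxOR II.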

[11] = molecular target: Peroxisome proliferator-activated receptor delta (Homo sapiens) (UniProt Q03181); assay: qHTS assay to identify small molecule agonists of the peroxisome proliferator-activated receptor delta (PPARd) signaling pathway (AID 743212; calls by dose curve; further: potency means the concentration at half of the fitted maximal effect; on activation: on the % scale 0 is the no-effect control and ±100 the full control effect); conditions: HEK293H PPARd-UAS-bla, beta-lactamase FRET ratio, 17 h; activation: at 62.6 µM (top of the series) unless noted
Procedure, shortened: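 HEK293H UAS-bla reporter cells, human PPARd system; compounds delivered in DMSO after 5 h plating, then at 37 C. Beta-lactamase FRET read, 2 h RT substrate step.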

[12] = qHTS assay to identify small molecule agonists of H2AX (AID 1224845; active means well fitted activation curve with a large enough effect in the signal ratio in the repeat runs, not every such curve was filed as active; inconclusive means weak or mixed curves; the % refers to the signal ratio; further: potency means the concentration at half of the fitted maximal effect); conditions: CHO-K1 phospho-H2AX Ser139 HTRF, 3 h; activation (H2AX phosphorylation): at 154 µM (top of the series) unless noted
Procedure, shortened: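 Phospho-H2AX Ser139 measured by HTRF (ex 320 nm; em 665 and 620 nm) after 24 hr antibody incubation. Compounds, 15 concentrations, 0.76% DMSO, were applied to CHO-K1 cells for 3hr at 37C before lysis.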

[13] = molecular target: Estrogen receptor (Homo sapiens) (UniProt P03372); assay: qHTS assay to identify small molecule antagonists of the estrogen receptor alpha (ER-alpha) signaling pathway (AID 743069; active means well fitted curve in the direction sought with a large enough effect in the signal ratio in the repeat runs, not every such curve was filed as active; inconclusive means weak or mixed curves, or effect the other way; inactive means no such curve, though single readings can be large or run the other way; the % refers to the signal ratio; further: potency means the concentration at half of the fitted maximal effect); conditions: HEK293 ER-alpha-UAS-bla, beta-lactamase ratio, antagonist mode; activity, negative = inhibition: at 69.4 µM (top of the series) unless noted
Procedure, shortened: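 Compound effects are measured against 17beta-estradiol stimulation in HEK293 cells with a UAS-controlled beta-lactamase reporter for ER-alpha. Exposure lasts 18 hr at 37C; LiveBLAzer B/G FRET substrate follows for 2 hr at room temperature.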

[14] = qHTS assay to identify small molecule agonists of the TGF-beta/Smad signaling pathway (AID 1346859; active means well fitted activation curve with a large enough effect in the signal ratio in the repeat runs, not every such curve was filed as active; inconclusive means weak or mixed curves; the % refers to the signal ratio; further: potency means the concentration at half of the fitted maximal effect)
Procedure, shortened: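 Each well held 4,000 SBE-bla HEK 293T cells incubated overnight before compound addition; 5 hr later the cleavable FRET substrate went on for 2 hr at room temperature, and fluorescence was read at two emissions.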

[15] = molecular target: Cytochrome P450 3A4 (Homo sapiens) (UniProt P08684); assay: Cytochrome P450 Family 3 Subfamily A Member 4 (CYP3A4) small molecule antagonists: luciferase reporter qHTS assay (AID 1671201); further: nearly all actives have a fitted effect of over 50% in size; further: potency means the concentration at half of the fitted maximal effect
Procedure, shortened: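 Proluciferin-to-luciferin conversion by CYP3A4, NADPH-regenerated, 1 h RT; luminescence read as RLU. Ketoconazole as control.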

[16] = molecular target: Bile acid receptor (Homo sapiens) (UniProt Q96RI1); assay: qHTS assay to identify small molecule antagonists of the farnesoid-X-receptor (FXR) signaling pathway (AID 743217; active means well fitted inhibition curve with a large enough effect in the signal ratio in the repeat runs, not every such curve was filed as active; inconclusive means weak or mixed curves, or effect the other way; inactive means no such curve, though single readings can be large or run the other way; the % refers to the signal ratio; further: potency means the concentration at half of the fitted maximal effect); conditions: HEK293T FXR-UAS-bla, beta-lactamase ratio, CDCA-stimulated, 16 h; activity change, negative = inhibition: at 62.6 µM (top of the series) unless noted
Procedure, shortened: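 In this cell-based antagonist screen, inhibition of CDCA-driven (50 uM final) UAS-beta-lactamase expression in HEK 293T cells was measured by FRET fluorescence following 16 h compound exposure at 37 °C.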

[17] = molecular target: Nuclear receptor subfamily 1 group I member 3 (Homo sapiens) (UniProt Q14994); assay: qHTS assay to identify small molecule agonists of the constitutive androstane receptor (CAR) signaling pathway (AID 1224839); further: nearly all actives have a fitted effect of over 15% in size; further: potency means the concentration at half of the fitted maximal effect
Procedure, shortened: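 Double-stable HepG2 cells (hCAR, CYP2B6-2.2kb) seeded 4 h before compound addition. Exposure 24 h with 0.75 uM PK11195 final. Luciferase detected by ONE-Glo.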

[18] = molecular target: Thyrotropin receptor (Homo sapiens) (UniProt P16473); assay: qHTS assay to identify small molecule agonists of the thyroid stimulating hormone receptor (TSHR) signaling pathway (AID 1224843; calls by dose curve; further: on the % scale 0 is the no-effect control and ±100 the full control effect; nearly all actives have a fitted effect of over 45% in size); conditions: TSHR-HEK293 cells, cAMP HTRF, agonist mode, 30 min; activation: at 92.4 µM (top of the series) unless noted
Procedure, shortened: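 HEK293 cells stably bearing the thyrotropin receptor were plated at 800 cells/well and challenged with compound (30 min, RT). Accumulated cAMP was quantified via cAMP-d2 competing for cryptate-tagged antibody.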

[19] = molecular target: Thyrotropin receptor (Homo sapiens) (UniProt P16473); assay: qHTS assay to identify small molecule antagonists of the thyroid stimulating hormone receptor (TSHR) signaling pathway (AID 1259385; calls by dose curve; further: on the % scale 0 is the no-effect control and ±100 the full control effect; nearly all actives have a fitted effect of over 20% in size); conditions: TSHR-HEK293 cAMP HTRF, TSH-stimulated antagonist mode; activity change, negative = inhibition: at 92.4 µM (top of the series) unless noted
Procedure, shortened: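 Antagonist mode: compound-treated TSHR-expressing HEK293 cells were stimulated with 1.5 ng/mL TSH (final) in presence of Ro20-1724 for 30 min at RT. HTRF cAMP detection after 1 h; each compound tested at 15 concentrations, triplicate.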
Tags describe the fitted curve by direction and shape or compound fluorescence and quenching.

Sequence of UniProt P03372 (P03372 whole entry, looked up): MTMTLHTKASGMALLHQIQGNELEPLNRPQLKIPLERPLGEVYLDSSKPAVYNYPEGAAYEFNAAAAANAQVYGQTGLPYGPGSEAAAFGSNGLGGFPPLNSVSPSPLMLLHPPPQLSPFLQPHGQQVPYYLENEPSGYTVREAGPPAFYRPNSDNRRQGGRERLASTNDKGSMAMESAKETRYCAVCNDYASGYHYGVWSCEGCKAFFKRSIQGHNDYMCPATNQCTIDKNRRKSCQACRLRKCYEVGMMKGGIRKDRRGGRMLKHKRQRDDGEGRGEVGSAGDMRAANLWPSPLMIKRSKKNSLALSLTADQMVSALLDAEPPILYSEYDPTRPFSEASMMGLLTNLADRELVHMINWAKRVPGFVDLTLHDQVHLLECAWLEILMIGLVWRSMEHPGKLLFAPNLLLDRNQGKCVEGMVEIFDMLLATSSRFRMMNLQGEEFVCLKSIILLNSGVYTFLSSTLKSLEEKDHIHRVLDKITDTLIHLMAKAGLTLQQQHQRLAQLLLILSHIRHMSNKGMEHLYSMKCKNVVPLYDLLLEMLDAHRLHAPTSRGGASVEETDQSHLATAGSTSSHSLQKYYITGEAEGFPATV
Sequence of UniProt P06401 (P06401 whole entry, looked up): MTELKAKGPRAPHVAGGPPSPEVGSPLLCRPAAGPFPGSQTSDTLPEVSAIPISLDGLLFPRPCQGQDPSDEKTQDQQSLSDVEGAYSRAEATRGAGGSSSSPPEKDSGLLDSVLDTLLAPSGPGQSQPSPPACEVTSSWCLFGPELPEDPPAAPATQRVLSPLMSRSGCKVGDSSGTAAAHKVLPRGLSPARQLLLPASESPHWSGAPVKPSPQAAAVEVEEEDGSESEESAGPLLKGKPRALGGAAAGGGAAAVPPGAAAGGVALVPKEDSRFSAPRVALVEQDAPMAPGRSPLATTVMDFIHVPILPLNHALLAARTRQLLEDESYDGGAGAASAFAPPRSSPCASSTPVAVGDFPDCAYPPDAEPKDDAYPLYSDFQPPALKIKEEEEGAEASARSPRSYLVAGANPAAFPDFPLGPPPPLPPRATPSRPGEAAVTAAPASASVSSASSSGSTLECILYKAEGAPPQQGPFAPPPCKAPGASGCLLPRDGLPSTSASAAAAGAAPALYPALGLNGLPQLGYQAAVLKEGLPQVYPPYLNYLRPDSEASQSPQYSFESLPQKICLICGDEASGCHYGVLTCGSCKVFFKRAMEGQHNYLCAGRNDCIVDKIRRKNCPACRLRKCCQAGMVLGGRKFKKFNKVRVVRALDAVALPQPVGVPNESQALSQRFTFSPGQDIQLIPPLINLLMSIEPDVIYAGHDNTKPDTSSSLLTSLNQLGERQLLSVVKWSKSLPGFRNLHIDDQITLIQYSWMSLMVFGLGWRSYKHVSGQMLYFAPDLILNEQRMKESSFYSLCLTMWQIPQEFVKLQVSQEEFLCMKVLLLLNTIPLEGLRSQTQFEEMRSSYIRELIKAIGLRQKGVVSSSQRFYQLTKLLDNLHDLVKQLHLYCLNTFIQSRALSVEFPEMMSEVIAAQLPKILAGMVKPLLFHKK
Sequence of UniProt P37231 (P37231 whole entry, looked up): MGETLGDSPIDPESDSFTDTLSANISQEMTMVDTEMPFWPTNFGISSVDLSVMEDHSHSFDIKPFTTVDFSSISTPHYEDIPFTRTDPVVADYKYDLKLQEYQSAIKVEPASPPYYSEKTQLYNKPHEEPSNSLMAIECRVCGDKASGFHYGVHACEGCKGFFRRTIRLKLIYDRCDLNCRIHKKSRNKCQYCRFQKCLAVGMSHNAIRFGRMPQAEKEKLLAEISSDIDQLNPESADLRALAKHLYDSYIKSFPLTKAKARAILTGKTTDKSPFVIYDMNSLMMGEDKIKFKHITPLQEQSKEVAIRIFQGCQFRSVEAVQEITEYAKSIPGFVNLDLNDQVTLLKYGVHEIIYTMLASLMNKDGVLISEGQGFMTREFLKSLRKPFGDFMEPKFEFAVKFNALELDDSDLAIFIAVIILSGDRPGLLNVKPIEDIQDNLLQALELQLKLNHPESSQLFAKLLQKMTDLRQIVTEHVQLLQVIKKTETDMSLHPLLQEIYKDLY
Sequence of UniProt Q12809 (Q12809 whole entry, looked up): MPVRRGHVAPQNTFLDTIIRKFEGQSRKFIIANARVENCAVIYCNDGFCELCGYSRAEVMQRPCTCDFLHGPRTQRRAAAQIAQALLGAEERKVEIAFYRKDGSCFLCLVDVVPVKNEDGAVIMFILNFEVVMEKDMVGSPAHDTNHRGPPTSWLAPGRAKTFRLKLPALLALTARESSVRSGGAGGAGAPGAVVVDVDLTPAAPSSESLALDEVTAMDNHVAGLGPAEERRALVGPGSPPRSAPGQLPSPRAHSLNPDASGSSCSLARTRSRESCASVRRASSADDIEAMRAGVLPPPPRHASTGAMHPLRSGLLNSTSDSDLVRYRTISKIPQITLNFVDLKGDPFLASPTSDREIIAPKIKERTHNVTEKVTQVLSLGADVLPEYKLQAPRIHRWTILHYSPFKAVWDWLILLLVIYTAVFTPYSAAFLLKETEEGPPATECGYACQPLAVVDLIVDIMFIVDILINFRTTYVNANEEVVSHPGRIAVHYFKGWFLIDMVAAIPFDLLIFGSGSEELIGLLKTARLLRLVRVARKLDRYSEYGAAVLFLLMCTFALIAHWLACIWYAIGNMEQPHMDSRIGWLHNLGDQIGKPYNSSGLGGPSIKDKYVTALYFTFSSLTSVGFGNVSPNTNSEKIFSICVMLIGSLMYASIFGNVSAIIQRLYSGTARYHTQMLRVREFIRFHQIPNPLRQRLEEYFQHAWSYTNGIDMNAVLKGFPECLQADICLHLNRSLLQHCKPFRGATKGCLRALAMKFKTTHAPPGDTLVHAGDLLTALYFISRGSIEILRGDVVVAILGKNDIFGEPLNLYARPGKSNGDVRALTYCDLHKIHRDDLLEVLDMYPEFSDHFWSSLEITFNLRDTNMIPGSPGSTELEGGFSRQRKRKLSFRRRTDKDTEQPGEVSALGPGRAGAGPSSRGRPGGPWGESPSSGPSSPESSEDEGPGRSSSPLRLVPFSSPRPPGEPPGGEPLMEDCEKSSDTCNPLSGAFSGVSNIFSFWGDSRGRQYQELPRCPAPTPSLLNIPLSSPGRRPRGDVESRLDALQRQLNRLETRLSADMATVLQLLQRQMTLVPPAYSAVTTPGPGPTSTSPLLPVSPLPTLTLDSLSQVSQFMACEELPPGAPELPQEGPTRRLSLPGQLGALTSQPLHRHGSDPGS
Sequence of UniProt Q14994 (Q14994 whole entry, looked up): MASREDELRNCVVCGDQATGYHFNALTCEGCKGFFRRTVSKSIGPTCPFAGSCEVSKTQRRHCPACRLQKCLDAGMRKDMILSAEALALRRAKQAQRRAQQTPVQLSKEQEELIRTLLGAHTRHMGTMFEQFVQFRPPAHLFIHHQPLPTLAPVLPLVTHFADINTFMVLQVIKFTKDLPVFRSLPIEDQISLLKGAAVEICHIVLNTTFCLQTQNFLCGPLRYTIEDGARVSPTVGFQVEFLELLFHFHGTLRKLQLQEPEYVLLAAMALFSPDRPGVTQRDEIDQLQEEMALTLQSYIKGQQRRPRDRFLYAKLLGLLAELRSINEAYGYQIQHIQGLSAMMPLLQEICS
Sequence of UniProt P08684 (P08684 whole entry, looked up): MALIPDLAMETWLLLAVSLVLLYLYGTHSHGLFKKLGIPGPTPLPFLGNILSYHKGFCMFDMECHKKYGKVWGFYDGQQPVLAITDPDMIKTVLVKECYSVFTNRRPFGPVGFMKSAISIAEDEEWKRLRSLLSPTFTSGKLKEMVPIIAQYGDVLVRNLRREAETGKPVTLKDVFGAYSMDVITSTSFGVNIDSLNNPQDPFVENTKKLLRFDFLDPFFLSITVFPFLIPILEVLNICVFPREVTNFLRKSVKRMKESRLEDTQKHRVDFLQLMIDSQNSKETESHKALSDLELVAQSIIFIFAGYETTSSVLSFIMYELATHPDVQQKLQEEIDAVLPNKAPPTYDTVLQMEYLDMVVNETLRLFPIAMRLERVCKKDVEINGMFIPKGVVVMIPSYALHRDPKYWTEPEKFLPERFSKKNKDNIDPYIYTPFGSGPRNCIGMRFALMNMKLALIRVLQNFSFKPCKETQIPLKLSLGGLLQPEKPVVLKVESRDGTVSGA
Sequence of UniProt Q03181 (Q03181 whole entry, looked up): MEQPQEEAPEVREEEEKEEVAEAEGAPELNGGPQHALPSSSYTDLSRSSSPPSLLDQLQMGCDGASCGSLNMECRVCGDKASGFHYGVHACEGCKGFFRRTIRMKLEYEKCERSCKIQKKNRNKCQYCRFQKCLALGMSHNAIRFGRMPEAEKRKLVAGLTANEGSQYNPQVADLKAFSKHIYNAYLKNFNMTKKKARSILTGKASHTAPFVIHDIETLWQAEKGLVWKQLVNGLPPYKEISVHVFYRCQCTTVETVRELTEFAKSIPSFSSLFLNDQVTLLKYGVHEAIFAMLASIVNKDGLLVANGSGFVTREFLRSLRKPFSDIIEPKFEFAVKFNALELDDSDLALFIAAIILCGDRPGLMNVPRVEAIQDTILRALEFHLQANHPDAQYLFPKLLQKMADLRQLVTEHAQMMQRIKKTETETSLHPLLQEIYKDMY
Sequence of UniProt Q96RI1 (Q96RI1 whole entry, looked up): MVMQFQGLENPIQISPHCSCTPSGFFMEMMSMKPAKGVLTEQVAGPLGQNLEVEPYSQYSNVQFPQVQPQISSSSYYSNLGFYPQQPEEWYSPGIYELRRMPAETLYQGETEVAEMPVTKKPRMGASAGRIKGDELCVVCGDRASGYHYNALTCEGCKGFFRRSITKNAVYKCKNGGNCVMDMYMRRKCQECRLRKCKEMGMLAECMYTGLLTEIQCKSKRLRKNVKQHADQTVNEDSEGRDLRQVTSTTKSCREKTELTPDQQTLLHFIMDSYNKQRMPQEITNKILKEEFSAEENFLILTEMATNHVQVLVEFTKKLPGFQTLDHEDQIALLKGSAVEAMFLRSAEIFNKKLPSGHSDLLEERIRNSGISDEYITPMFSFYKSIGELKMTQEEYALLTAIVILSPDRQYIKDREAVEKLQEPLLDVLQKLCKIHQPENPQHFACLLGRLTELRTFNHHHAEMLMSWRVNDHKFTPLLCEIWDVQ

For `Cc1ccc(Nc2ccc(O)c3c2C(=O)c2ccccc2C3=O)cc1`, the Potency [1] was “inactive”.

With `CC(=O)OC1CCCCC1C(C)(C)C` (stereo unspecified) the Potency [2] was “inactive” and the Potency [3] was “inactive”.

For `NS(=O)(=O)c1ccccc1Cl`, the Potency [4] was inconclusive: 0.0014 µM [cytotoxic, full curve, poor fit] and the Potency [1] was “inactive”.

In the case of `NCCN1CCNCC1`, the Potency [5] was “inactive”, the Potency [6] was “inactive” and the Potency [7] was inconclusive: 30.9 µM [cytotoxic, partial curve, poor fit].

For `COCCO`, the ratio activity, negative = inhibition [8] was inconclusive: 3.67%.

In the case of `CC(C(O)c1ccc(O)cc1)N1CCC(Cc2ccccc2)CC1` (stereo unspecified), the Potency [1] was inconclusive: 29.8 µM [rising, partial curve], the Potency [9] was “inactive” and the Potency [10] was active: 6.01 µM.

For `NC(=O)NO`, the Potency [11] was “inactive” and the Potency [12] was inconclusive: 127 µM [activator, partial curve, poor fit].

With `C=C1[C@H]2CC[C@@H]3[C@H]2C(C)(C)CCC[C@]13C` the Potency [13] was “inactive” and the Potency [14] was “inactive”.

In the case of `CSc1nc(NC2CC2)nc(NC(C)(C)C)n1`, the Potency [12] was “inactive”, the Potency [10] was inconclusive: 54.9 µM [inhibitor, partial curve] and the Potency [15] was active: 39.9 µM.

With `COc1ccc(CCC(C)=O)cc1` the Potency [4] was inconclusive: 0.119 µM [cytotoxic, single point], the Potency [11] was “inactive” and the Potency [7] was inconclusive: 33.5 µM [rising, partial curve, poor fit]. For the same compound, the Potency [12] was “inactive”.

With `CN(C)CCN(C)CCO` the Potency [16] was “inactive”.

For `O=C1O[C@H]([C@H](O)CO)C(O)=C1O`, the Potency [7] was inconclusive: 61.6 µM [rising, partial curve, poor fit], the Potency [17] was “inactive” and the Potency [1] was “inactive”.

In the case of `CC(O)CCCCn1c(=O)c2c(ncn2C)n(C)c1=O` (stereo unspecified), the Potency [11] was “inactive”.

With `CCN(CCC#N)c1ccc(N=Nc2ccc([N+](=O)[O-])cc2)cc1` the Potency [12] was “inactive”.

With `Nc1ccn([C@@H]2O[C@H](CO)[C@@H](O)C2(F)F)c(=O)n1` the Potency [13] was active: 4.77 µM [inhibitor], the activation [6] was inconclusive: -17.2% and the Potency [16] was inconclusive: 1.33 µM [inhibitor, full curve]. The Potency [18] was “inactive”, the Potency [12] was active: 0.982 µM and the Potency [1] was inconclusive: 23.7 µM [rising, single point].

With `CC(C)(Oc1ccc(CCNC(=O)c2ccc(Cl)cc2)cc1)C(=O)O` the Potency [13] was “inactive”, the Potency [6] was inconclusive: 7.23 µM [activator, partial curve, poor fit] and inconclusive: 24.5 µM [activator, partial curve] and the Potency [11] was active: 38.9 µM and inconclusive: 29.8 µM. For the same compound, the ratio activity, negative = inhibition [8] was inconclusive: 7.69% and the Potency [15] was “inactive”.

With `COc1c2occc2c(OC)c2c(=O)cc(C)oc12` the Potency [7] was “inactive”, the Potency [17] was active: 13.3 µM and the Potency [3] was active: 9.52 µM. The Potency [19] was “inactive”.

For `CNc1ncnc2nc[nH]c12`, the Potency [9] was “inactive”.

With `CCC(C(=O)OCCOCCN(CC)CC)c1ccccc1` (stereo unspecified) the Potency [14] was “inactive”.

With `c1ccc(B(c2ccccc2)c2ccccc2)cc1` the Potency [4] was inconclusive: 0.195 µM [cytotoxic, full curve, poor fit], the ratio activity, negative = inhibition [8] was inconclusive: -10.9% and the Potency [17] was active: 48.5 µM. For the same compound, the Potency [3] was inconclusive: 24.5 µM [cytotoxic, partial curve].

With `COc1cc(OC)nc(NC(=O)NS(=O)(=O)Nc2ccccc2C(=O)N(C)C)n1` the Potency [15] was inconclusive: 25.2 µM [inhibitor, full curve].

In the case of `O=C(O)c1cc(C(=O)O)cc(C(=O)O)c1`, the Potency [2] was “inactive”.

In the case of `C=CC(C)CCCC(C)(C)O` (stereo unspecified), the Potency [5] was “inactive”, the Potency [14] was inconclusive: 21.8 µM [activator, single point] and the Potency [10] was active: 43.6 µM. The Potency [15] was inconclusive: 70.9 µM [inhibitor, partial curve].

With `COc1ccc(S(=O)(=O)N2c3ccc(Cl)cc3[C@@](O)(c3ccccc3Cl)[C@H]2C(=O)N2CCC[C@@H]2C(N)=O)cc1OC` the Potency [13] was “inactive”, the activation [6] was inconclusive: -8.1% and the Potency [3] was inconclusive: 21.3 µM [cytotoxic, partial curve]. The Potency [10] was inconclusive: 10.7 µM [inhibitor, full curve, poor fit].

For `O=C(O)Cc1ccc(CCNS(=O)(=O)c2ccc(Cl)cc2)cc1`, the Potency [6] was inconclusive: 19 µM [activator, partial curve].
